Source: PubChem BioAssay (NCI)
Where a structure was tested more than once in an assay, its records may differ in their call.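 Single-dose data. Exposure time 48 hours. Values below 10 considered active.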 Some entries of the source have several records that differ or are many. This list holds those alone. The source may hold further records. These are repeated runs of one drug, at its own concentration, as given; each value is one run. Signs of the kind (2×) give the number of equal values in this list.

Tests used:
786-0 renal = test: NCI-60 one-dose screen, 48 h (100 = growth as untreated, 0 = no growth, -100 = all killed)
K-562 leukemia = test: as above; conditions: 0.25 µM

COc1cccc2c1C(=O)c1c(O)c3c(c(O)c1C2=O)C[C@@](O)(C(=O)CO)C[C@@H]3OC1CC(N)C(O)C(C)O1 (stereo not given in full)
growth (786-0 renal; 0.25 µM, runs of 2021): inactive: 16.7, 31.4, 21, 25.8, 23.5 (2×), 23.9, 18.9, 19.3, 20.2, 18.7, 24.7, 15.6, 17 (2×), 15.2, 20.5, 16.6, 18.6, 14.4 (2×), 13.2, 15 (2×), 16.8, 11.7 (2×), 11.3 (2×), 12.8, 16, 17.2, 17.5, 18.4, 10.7, 17.6 (2×), 21.6, 15.3, 28.3, 31.5, 11.6, 13.6, 14, 12, 12.5, 17.3, 17.7, 14.5% and active: 8.65, 5.26, 9.76, 9.23, 6.5, 7.88, 9.84% | growth (786-0 renal; 0.25 µM, runs of 2022): active: 8.78, 3.29, 0.469, 5.52, 4, 6.36, 8.38, 5.71, 9.22, 7.35% and inactive: 16.7, 13.4 (2×), 18.3, 13.9, 19.5, 26.7, 15.3, 11, 44.6, 59.1, 16.6, 51.5, 51.8, 82.8, 11.1, 11.6, 13.1% | growth (786-0 renal; 25 µM, runs of 1991): active: -15.9, -16.1, -20.9, -27, -24.5, -50.3, -3.08, -16.8, -3.55, -26.2, -18.4, -18.9, -3.86, 4.14, -30.4, -2.25, -37.1, -13.9% | growth (786-0 renal; 25 µM, runs of 1992): active: -40.9, -25.9 (2×), -23.5 (3×), -46.2, 3.48, -22.3, -17.5, -4.27, -60.3, -58.2, -14.4 (2×), -3.89, -7.29, -38, -33.3, -51.6, -10.7, -37.9, -38.9, -9.74, -35.7 (2×), -7.35, -40.8, -23.6 (2×), -25.3, -46.5, -96.6, -42.5, -8.33, -8.6, -15.9, -17.9, -20.3, -35.4, -32.2, -34, -19.4, -29.4, 0.2, -14.9, 5.36, -10.4, -8.41, -11, -13.5, -19.9, -44.3, -12.6, -45.9, -35, -24.9, -18.5, -67.9, -50, -37.8, -17.6, -39.4, -39.3, -16.4, -31.3, -48, -9.09, -15.2, 0.326, -85.4, -97.3, -8.22, -31.2, -19.5, -7.65, -53.1, -49.3, -38.1, -30.4, -17.8, -34.2, -26.4, -50.9, 1.43, -50.5, -19.8, -51.8, -30.7, -5.99, -16.1, -36.1, -73.9, -35.5, -24.4, -16.9, -34.6, -56.7, -70, -42.1, -57.3, -86.8, -57.8, -29.9, -51.1 (2×), -56.2, -45.5, 0.728, 2.29, -17.2% and inactive: 87.8%, 23% | growth (786-0 renal; 25 µM, runs of 1993): active: 0.0675, -5, -43.5, -53.1, -50.3, -20.5, -5.65, -30.5, -41, 2.09, -13.3, -50.8, -39.5, -39.6, -5.41, -16.1, -27.9, -12.3, 2.23, -11, -26, -44.5, -14.8, -11.6, -11.5, -7.43, -45, -24.9, -1.69, -23.6, -39.9, 1.7, -43.6, -21.4, -50.4, 3.01, -38.1, -45.2, -45.3, -36.4, -32.1, -54.6, -30.1, -35.2% and inactive: 27.9% | growth (786-0 renal; 25 µM, runs of 1994): active: -17.5, -29.4, -35.7 (2×), -64.9, 1.81, -7.8, -2.43, -31.5, -51.4, -33.4, 4.23, -78, -33.3, -51.5, -1.19, -50.9, -13.7, -26.4, -34.9, -27, -7.64, -30.1, 0.942, 0.151, -2.45, 6.95, -14.1, 5.01, -52.9, -2.31% and inactive: 101%, 79.3% | growth (786-0 renal; 25 µM, runs of 1995): active: -12, 3.22, -45.6, 6.76, -43.3, -44.3, -10.1, 4.69, -28.4 (2×), -31.6, -68.8, -19, -8.63, -11.1, -16.7, -1.9, 0.446, -8.75, -25.5, -23.1, -41.9, -44.4, -19.8, -24.1, -46.8, 3.03, -8.92, -37.4, -30.3, -55, -90, -28.7, -1.52, 3.73, -9.7, -23.5, -6.25, 1.31% | growth (786-0 renal; 25 µM, runs of 1996): active: -23.9, -42.6, -2.43, 2.61, 1.08 (2×), 4.68, 0.957, -13.6, 1.82, 5.24, -26.7, -28.7, -44.4, -46.5, 2.51, -31.6, -24.8, -39.7, -50.8, -1.46, -28.6, -44.3, -2.4, 1.09, -56.7, -83.5, -24.7, -45.9, 0.763, -12.5, -22.9, 2.95, -23, -29.7, -0.245, -20.7, 2.56, -24.9, -17.6, -29.9, -25.3, -35.3, 5.01, -11.9, -46.1, -28.2, -41.9, 4.97, -22.4, 2.07, -44.9, -58.6, -8.1% and inactive: 10.2, 99.4, 12, 19.3% | growth (786-0 renal; 25 µM, runs of 1997): active: -6.85, -8.51, -22.3, -1.13, -28, -24.7, -16, -49, -41, -2.92, -26.4, -29, -17.1, 2.92, -20.2, -45, -15.1, -12.8, -23.2, 1.71, 8.53, -40.1, -41.5, -11.3, -36.4, -38.3, -51.5, -41.9, -29.7, -29.1, -35.3, -40, -17.7, -39.1, -34.1, -46.8, -45.5, -57.9, -28.2, -28.7, -5.75, -26, -29.2, -33.1% | growth (786-0 renal; 25 µM, runs of 1998): active: -58, -27.4, -8.28, -42.5, 0.179, 7.47, -14.7, -12.4, -28.4, -74.9, -46, -50.3, -31.5, -15.6, -11, -67.1, -0.638, 8.48, -36.6, -91.7, -5.86, -66.7, -29.9% and inactive: 32.7% | growth (786-0 renal; 25 µM, runs of 1999): active: -48, -36.6, -17.5, -60.1, -25.8, -50.1, -100 (3×), -62.1, -84.9, -47, -74, 3.35, 1.22, -77.1, -94.1, -68.4% | growth (786-0 renal; 25 µM, runs of 2000): active: -100% (2×), -10.2%, 0.0427% | growth (K-562 leukemia; runs of 2006): inactive: 20.6%, 28.2% | growth (K-562 leukemia; runs of 2007): inactive: 23.5, 34.3, 20.6, 19.6, 26.7, 31.3, 30.6, 22, 41.8, 26.2, 49.1, 50.2, 52, 43.7, 40.7, 48.4 (3×), 24.6, 33.3 (3×), 40.5, 40.1, 62.1, 46.7, 34.7, 36, 43, 25.8, 13.6, 31.6, 82.8, 47.2, 46.5, 34.8, 53.7, 44, 58.1, 41.7, 25.9, 55.1% | growth (K-562 leukemia; runs of 2008): inactive: 59.3, 47.5, 60.8, 51.4, 70, 44.3, 93.1, 54.8, 38.4, 74.2, 69.7, 43.6, 28.5, 65.2, 27.1, 58.3, 62.9, 65.4, 26, 15.1, 28.9, 28, 17, 23.8, 18.4, 19.8, 64.5, 20.6, 23.2, 18.3, 20, 29.3, 34.2, 22.3, 25, 19.5, 47.9, 46.3, 42.4, 37.1, 15.2, 16.7, 59.7, 48.1, 32.9, 12.5, 17.5, 24.6 (2×), 23.5% and active: 8.9, 9.7, 8.82, -14.2, 6.99%
